Source: PMC4336329 (PLoS ONE, 2015)
About 14,000 (4.5%) of roughly 310,000 compounds showed an effect of 50% or more. The effect is printed as a negative number. The list shows a part of the results.

molecular target: human ether-à-go-go-related gene (hERG) potassium channel (human, UniProt Q12809); assay: primary screen, population patch clamp on CHO cells stably expressing hERG
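Also: peak tail current of the secondary pulse compared with the same well before compound.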

human ether-à-go-go-related gene (hERG) potassium channel, sequence (Q12809 whole entry, looked up): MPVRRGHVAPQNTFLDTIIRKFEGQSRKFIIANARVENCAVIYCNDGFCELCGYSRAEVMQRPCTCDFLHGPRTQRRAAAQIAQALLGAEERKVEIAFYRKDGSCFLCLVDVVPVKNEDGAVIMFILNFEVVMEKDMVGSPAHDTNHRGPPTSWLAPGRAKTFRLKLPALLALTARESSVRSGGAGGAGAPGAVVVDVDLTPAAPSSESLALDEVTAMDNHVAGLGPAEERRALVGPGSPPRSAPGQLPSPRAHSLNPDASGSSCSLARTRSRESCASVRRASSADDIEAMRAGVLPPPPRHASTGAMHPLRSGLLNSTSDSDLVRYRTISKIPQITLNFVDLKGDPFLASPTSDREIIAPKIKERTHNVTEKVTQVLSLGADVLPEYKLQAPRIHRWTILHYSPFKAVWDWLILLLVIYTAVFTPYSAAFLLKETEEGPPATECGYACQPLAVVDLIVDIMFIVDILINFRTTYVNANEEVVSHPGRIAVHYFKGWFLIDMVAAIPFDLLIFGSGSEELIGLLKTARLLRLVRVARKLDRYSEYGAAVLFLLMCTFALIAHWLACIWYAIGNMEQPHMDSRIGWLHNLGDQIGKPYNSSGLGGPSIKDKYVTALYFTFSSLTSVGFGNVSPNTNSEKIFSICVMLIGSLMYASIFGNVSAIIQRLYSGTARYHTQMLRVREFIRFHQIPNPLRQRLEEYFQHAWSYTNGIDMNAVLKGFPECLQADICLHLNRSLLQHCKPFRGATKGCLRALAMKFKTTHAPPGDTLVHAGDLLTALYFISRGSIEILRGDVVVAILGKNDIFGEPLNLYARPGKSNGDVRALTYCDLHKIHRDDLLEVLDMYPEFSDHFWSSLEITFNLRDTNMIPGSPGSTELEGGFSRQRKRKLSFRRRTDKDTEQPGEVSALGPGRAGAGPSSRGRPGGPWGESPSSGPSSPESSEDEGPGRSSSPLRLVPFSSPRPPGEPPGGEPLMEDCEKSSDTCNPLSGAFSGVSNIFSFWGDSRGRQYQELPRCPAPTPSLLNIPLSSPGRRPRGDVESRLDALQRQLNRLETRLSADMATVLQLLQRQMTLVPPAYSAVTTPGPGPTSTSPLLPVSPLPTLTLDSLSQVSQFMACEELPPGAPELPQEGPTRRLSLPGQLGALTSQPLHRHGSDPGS

In order of falling “hERG current change (%, negative = inhibition) at 10uM” value:
1. COc1ccc(-c2nn(-c3ccccc3)cc2C(=O)NC(=S)N2CCOCC2)cc1OC  30.1%
2. N/C(=N\OC(=O)c1cccc(F)c1)c1ccccn1  23.8%
3. CC(C)CC(=O)Nc1nnc(S(=O)(=O)N(C)c2ccc(Cl)cc2)s1  20.9%
4. Fc1ccccc1-c1n[nH]c(=S)n1C1CC1  20.6%
5. N/C(=N\OC(=O)C1CCCCC1)c1ccc(Br)cc1  19.9%
6. CCC(CO)Oc1cc(NC(=O)c2cccc(Cl)c2)c2ncn(C(C)C)c2c1 (stereo not shown)  19.7%
7. C=CCOc1cccc(/C=N/NC(=O)CC(=O)NC2CCCCC2)c1  19.2%
8. COc1ccc(-c2nc(CS(=O)(=O)CC(=O)NCc3ccc4c(c3)OCO4)c(C)o2)cc1  18.9%
9. CCOC(=O)c1sc2nc(CSc3ccccc3)nc(N3CCC(C(N)=O)CC3)c2c1C  17.5%
10. COc1ccc(C(=O)NC(=S)N(C)C2CCCCC2)cc1Br  17.2%
11. C/C(=N\NC(=O)c1cc(Br)ccc1O)c1cccs1  16.6%
12. Cc1cccc(C)c1OCc1n[nH]c(=S)o1  16.5%
13. COc1cc(/C=C(/Sc2nnc(-c3ccc(F)cc3)o2)C(=O)O)ccc1OC(F)F  15.6%
14. CCn1c(N)c(C(=O)Nc2ccccc2C(=O)OC)sc1=S  15.3%
15. CC1=C(C(=O)OC2CCCCCCC2)C(c2cc3c(cc2Br)OCO3)CC(=O)N1 (stereo not shown)  15.1%
16. COc1ccc(Nc2nc3ccccc3nc2NS(=O)(=O)c2ccc(NC(C)=O)cc2)cc1  15%
17. NS(=O)(=O)c1ccc(CNC(=O)C2CCCCC2)cc1  14.8%
18. COc1cccc(N(CC(=O)NC2CCCCC2)C(=O)CCCC(=O)Nc2ccccn2)c1  13.2%
19. COc1ccc(CNC(=O)CN2CCN(c3ccccc3O)CC2)cc1OC  12.6%
20. COc1ccc(/C=C/c2nc(-c3ccccc3O)n[nH]2)cc1OC  12.1%
21. COC(=O)Nc1ccc(S(=O)(=O)N2CCC(C(=O)N(C)C3CCCCC3)CC2)cc1  9.22%
22. COC(=O)C1=C(C)N(c2cccc(Cl)c2)C(=O)C1  9.01%
23. Cc1cnc([N+](=O)[O-])n1CCOC(=O)NC(=O)c1ccccc1Cl  8.87%
24. CCCCOc1ccc(C(=O)Nc2cccc(-n3cnnn3)c2)cc1OC  7.78%
25. COc1cc(OC)cc(-c2c(-c3cccs3)c3cc(-c4ccn[nH]4)ccc3n2C)c1  7.72%
26. CSCCNC(=O)c1ccc(OC2CCN(S(=O)(=O)N(C)C)CC2)cc1  7.53%
27. Cc1ccc(CCNC(=O)CN(c2ccc(C)cc2)S(=O)(=O)c2c(C)noc2C)cc1  7.5%
28. CC(C)c1nc2sc3c(=O)n(N)cnc3c2c2c1COC(C)(C)C2  7.46%
29. COC(=O)C1=C(N)OC2=C(C(=O)CC(C)(C)C2)C1c1cccs1 (stereo not shown)  6.56%
30. CC(=O)Oc1ccc2c(c1)c(C(C)=O)c(C)n2C  5.27%
31. Cc1ccc(C(=O)NCc2ccccn2)o1  4.94%
32. Cc1ccc(Cc2cnc(N3C(=N)SC(c4ccccc4)C3=O)s2)cc1 (stereo not shown)  3.87%
33. CC(NS(=O)(=O)c1ccc(CCC(=O)N2CCN(C)CC2)cc1)c1ccccc1 (stereo not shown)  3.59%
34. Brc1cnc(N2CCCC2)nc1N1CCCCC1  3.49%
35. O=P(c1ccccc1)(c1ccccc1)c1nc(-c2ccccc2)oc1NCc1ccccc1  3.15%
36. COc1ccc(OC)c(-n2nnnc2SCC(=O)Nc2cc(C)ccc2OC)c1  3.04%
37. CCC(=O)Nc1ccc(Cl)c(NC(=S)NC(=O)COc2ccc(Cl)cc2)c1  2.45%
38. COc1ccc(NC(=S)NC(NC(=O)c2cccc(Cl)c2)C(Cl)(Cl)Cl)c([N+](=O)[O-])c1 (stereo not shown)  2.21%
39. CCOC(CCNC(=O)c1cc(-c2cccs2)nc2ccccc12)OCC  1.87%
40. COc1ccc(-c2csc(NC(=O)CSCC(=O)Nc3cc(C)on3)n2)cc1OC  1.07%
41. COc1ccc(C(=O)c2sc(Nc3ccccc3)nc2C)cc1  0.747%
42. COc1ccc(-c2nc3c(c(SCC(=O)N4CCOCC4)n2)Cc2c(CO)cnc(C)c2O3)cc1  0.00838%
43. CCOC(=O)N1CCN(C(=O)Nc2ccccc2)CC1  -0.0218%
44. CCCCNCCCCOc1ccccc1  -0.921%
45. Cc1nn(C)cc1/C=N/NC(=O)Cn1nccc1C  -1.28%
46. CN1C(=O)N(C)C(=O)C2(Sc3ccccc3C2=O)C1=O  -1.41%
47. COc1cccc(C(=O)Nc2ccc3c(c2)C(=O)NC3=O)c1  -2.29%
48. Cc1ccc(C2(C)NC(=O)N(CC(=O)Nc3ccc4c(c3)OCO4)C2=O)cc1 (stereo not shown)  -3.02%
49. COc1ccc(/C=N/NC(=O)CNS(=O)(=O)c2ccccc2)cc1  -3.32%
50. COC(=O)C1(C(=O)OC)NOC2C(=O)N(c3ccccc3)C(=O)C21 (stereo not shown)  -3.39%
51. CCCn1c(Nc2ccccc2C)nc2ccccc21  -5.28%
52. CCOC(=O)C1CCCN(C2CC(=O)N(c3ccccc3)C2=O)C1 (stereo not shown)  -6.35%
53. COc1ccccc1C(=O)NC(=O)COC(=O)c1ccco1  -6.51%
54. CCCCN(C)C(=O)c1ccc2c(c1)N(CC)C(=O)c1ccccc1S2(=O)=O  -7.66%
55. COCCN=c1scc(-c2ccc3c(c2)NC(=O)CO3)n1/N=C(\C)c1ccc(O)cc1  -8.23%
56. COc1cccc(Nc2nc(=O)[nH]nc2C)c1  -8.95%
57. CCOc1ccc(-c2n[nH]c(C(=O)NN)c2C)cc1  -9.03%
58. O=C(O)COc1ccc(/C=N/NC(=O)c2cn(-c3ccccc3)nc2-c2ccccc2)cc1  -9.37%
59. CC(=O)c1ccc(NC(=O)CSc2nnc(Cn3c(=O)sc4ccccc43)n2C)cc1  -9.73%
60. Cc1[nH]n(-c2ccccc2)c(=O)c1C=Nc1ccc(S(N)(=O)=O)cc1  -10.1%
61. CCCCNC(=O)Nc1ccccc1C(=O)NCc1ccco1  -10.2%
62. CCOC(=O)c1cc(C)n(CCc2cnc[nH]2)c1C  -10.2%
63. CCN(CC)S(=O)(=O)c1ccc(/C=C/C(=O)Nc2ccc(F)c(F)c2F)cc1  -10.4%
64. COc1ccc(NC(=O)C2CCCN(S(=O)(=O)c3cccc4cccnc34)C2)cc1OC (stereo not shown)  -12.3%
65. Cl.c1ccc(N2CCCCC2)c(NC2=NCCC2)c1  -15.5%
66. CC1=Nc2cc(C(=O)N3CCCC3)ccc2Sc2ccc(C)cc21  -16.1%
67. CCN(C(=O)CSc1nc(C)nc2sc(C)c(C)c12)C1CCS(=O)(=O)C1 (stereo not shown)  -16.4%
68. O=C(Cn1ncc(Cl)c(Cl)c1=O)NCC1CCCCC1  -16.6%
69. NC(=O)C(c1ccc(Cl)cc1Cl)c1ncc(C(F)(F)F)cc1Cl (stereo not shown)  -19.3%
70. Cc1cc([N+](=O)[O-])cc(/C=N/n2c(C)nc3ccccc3c2=O)c1O  -20.2%
71. C=CCN(C(=O)c1csnn1)C(C(=O)NCc1ccc(F)cc1)c1sccc1C (stereo not shown)  -20.4%
72. COc1ccc(S(=O)(=O)N2CCCCC2)cc1NC(=O)c1cccnc1SC  -20.7%
73. COc1ccc(S(=O)(=O)N2CCOCC2)cc1NC(=O)CN(C)Cc1c(F)cccc1Cl  -21.2%
74. CCOC(=O)c1ccc[n+](C(C)C(=O)c2ccc(-c3ccccc3)cc2)c1.[Br-] (stereo not shown)  -21.3%
75. CCOC(=O)C(C)Sc1nc2ccccc2c(=O)n1CC (stereo not shown)  -22.4%
76. O=c1c2ccccc2nnn1Cc1nnc(-c2ccccc2Br)o1  -25.3%
77. COc1ccc(CNC(=O)c2sc(=S)n(-c3ccc(OC)cc3)c2N)cc1  -27.5%
78. COc1cc(/C=N\NC(=O)CN2CCOCC2)ccc1OCC(=O)Nc1ccc(C)c(C)c1  -32.4%
79. COc1ccc(/C=C/c2nc(S(=O)(=O)c3ccccc3)c(NCCCN(C)C)o2)cc1OC  -33.7%
80. O=C(NCCS(=O)(=O)N1CCN(Cc2ccccc2)CC1)c1ccc(F)cc1  -43.8%
81. CCCCCCn1c(O)c(C=NCCN2CCCCC2)c(=O)[nH]c1=O  -51.9%
82. O=C(/C=C\c1ccco1)Nc1ccc(N2CCN(C(=O)c3ccccc3)CC2)cc1  -55.7%
83. CCOc1ccc(-c2cnc3n2CCCCC3)cc1  -63.3%
84. O=C(COC(=O)c1ccccc1C(=O)c1ccccc1)NCCc1ccccc1  -64.8%
85. C=CCn1c(SC2CCOC2=O)nc2sc(CC)cc2c1=O (stereo not shown)  -65.4%
86. Cl.Fc1ccc(C(c2nnnn2Cc2ccco2)N2CCN(C3CCCCC3)CC2)cc1 (stereo not shown)  -65.6%
87. CC(C(=O)Nc1nc2ccccc2s1)n1cc([N+](=O)[O-])cn1 (stereo not shown)  -69.5%
88. Clc1ccccc1OCCN1CCC(Cc2ccccc2)CC1.O=C(O)C(=O)O  -73.4%
